# According to the supplement of paper PMC10126150:
# Values marked as one replicate rest on one cluster of the flow cell; about a third of the high ones do not repeat.
# Tested on: ATP
# Assay: switch fluorescence ratio, 500 uM ATP over buffer (Cy3 cluster intensity, sum of 5 cycles each) (fold (ratio)); higher = stronger signal-on switching upon ATP binding; sequences stand for … in TCGTCGGCAGCGTCAGATGTGTATAAGAGACAGTTTTTTTTTTTTTTTTTTTTTTTTT…TC
# Conditions: aptamer strand: ATP DNA aptamer (quencher-CACCTGGGGGAGTATTGCGGAGGAAGG + anchor), 100 nM annealed; ATP concentration: 500 uM; one replicate
# Method in brief: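 Between each of five buffer/ATP cycles, the flow-cell was stripped with NaOH and re-annealed. Each cycle imaged Cy3-labelled switching-strand clusters, annealed to 100 nM quencher-labelled ATP aptamer on a modified Illumina MiSeq flow-cell, first in selection buffer and then after 15 min with 500 uM ATP at 22 °C. The fluorescence ratio is summed target-cycle over summed buffer-cycle Cy3 intensity per cluster, averaged per switch-domain sequence, with clusters outside 100-1000 RFU excluded.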
# 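Note: ATP exposure 15 min at 22 °C before imaging.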
row,Sequence,switch fluorescence ratio
1,TTGTCTAGAC,1.07
2,TTGTCTAGTG,0.958
3,TTGTCTGCAT,1.12
4,TTGTGAGCAG,0.997
5,TTGTGCATGT,0.98
6,TTGTGCATTG,1.06
7,TTGTGGAGA,1.06
8,TTGTGGCTGC,1.03
9,TTGTGGGAGC,0.97
10,TTGTGTCGCG,1.06
11,TTGTGTCGGT,0.977
12,TTGTGTTT,1.03
13,TTGTTAGGCG,1
14,TTGTTAGTAG,1.05
15,TTGTTCAAGA,0.959
16,TTGTTCTTAC,1.05
17,TTGTTGAAGA,1.05
18,TTGTTGACCA,0.972
19,TTGTTGACTA,0.975
20,TTGTTGACTC,0.996
21,TTGTTGCACT,0.966
22,TTGTTGCCGA,1.02
23,TTGTTGGGTG,1.02
24,TTGTTTCATT,0.977
25,TTTAAAAATG,1.03
26,TTTAAAATCC,1.01

row,Sequence,switch fluorescence ratio
1,TTTAACACGG,1.03
2,TTTAACCATG,0.94
3,TTTAACCTTC,2.26
4,TTTAAGCTA,1.01
5,TTTAATAAT,1.02
6,TTTAATCCGA,1.07
7,TTTAATTTAA,1.04
8,TTTACAAACA,1.08
9,TTTACAGAAA,1
10,TTTACATGGA,0.98
11,TTTACCATA,1.09
12,TTTACCTTAA,1.59
13,TTTACGGGC,1.09
14,TTTACGTGAT,1.07
15,TTTACTATCG,0.998
16,TTTACTCAG,1.04
17,TTTACTTGAC,1.11
18,TTTACTTTG,1.05
19,TTTAGAAGTC,0.954
20,TTTAGACCTC,1.02
21,TTTAGAGAAG,0.972
22,TTTAGATGCG,1.02
23,TTTAGCATAT,1.1
24,TTTAGCGCCA,0.996
25,TTTAGCGTCC,1.01
26,TTTAGGGTCT,0.986

row,Sequence,switch fluorescence ratio
1,TTTAGTACAT,0.981
2,TTTAGTAGC,0.965
3,TTTAGTATG,1.04
4,TTTAGTCCCT,0.959
5,TTTAGTGATT,1.01
6,TTTAGTGGTG,0.969
7,TTTAGTTCAA,1
8,TTTATCAGGA,0.987
9,TTTATCCTAA,0.98
10,TTTATCGAGT,1.07
11,TTTATGCATC,1.39
12,TTTATGCGTC,0.969
13,TTTATGCTAT,1.01
14,TTTATGGGGC,0.97
15,TTTATTAAGC,0.984
16,TTTATTTCCG,0.998
17,TTTCAACTGC,0.928
18,TTTCAAGT,1.03
19,TTTCAATGA,1.01
20,TTTCAATGAT,1.01
21,TTTCACCTGT,1.04
22,TTTCACTAGC,1.02
23,TTTCAGACTG,1.07
24,TTTCAGATCA,0.973
25,TTTCAGCTT,1.03
26,TTTCAGTCT,1.06

row,Sequence,switch fluorescence ratio
1,TTTCATCTTC,0.987
2,TTTCATTTAG,1.01
3,TTTCCAACT,1.01
4,TTTCCACCG,1.29
5,TTTCCAGGAG,1.21
6,TTTCCATGTA,1.04
7,TTTCCCCAGT,1.02
8,TTTCCCGTGT,3.92
9,TTTCCGTTCG,1.03
10,TTTCCTAAAA,1.02
11,TTTCCTCACC,1.22
12,TTTCCTCATT,1.61
13,TTTCCTCCTT,1.64
14,TTTCCTTCAA,3.22
15,TTTCCTTTCT,0.939
16,TTTCCTTTGC,1.31
17,TTTCGAAAAT,0.995
18,TTTCGCGATA,1.06
19,TTTCGGACGT,0.998
20,TTTCGGGATA,1.05
21,TTTCGGGCTT,0.97
22,TTTCGTACA,1.04
23,TTTCGTATG,1.03
